# In PubChem BioAssay AID624418 (National Center for Advancing Translational Sciences (NCATS), 2012):
# The whole screen tested about 410,000 compounds, of which about 530 (0.13%) were called active. The shares of active, inactive and inconclusive entries below differ from those in the screen. Calls come from the whole dose curve; as a rule, active = well fitted inhibition curve with a large enough effect; inconclusive = small, poorly fitted or top-dose-only effect, or another doubt; inactive = no such curve, though single readings can be large or run the other way. Potencies beside an inconclusive call are fits to weak or partial responses and may not hold up.
# Assay: qHTS of GLP-1 Receptor Inverse Agonists: Cytotox Screen
# Details: HEK293 cAMP-luciferase reporter cells, luminescence, 24 h; activity change, negative = inhibition: at 38.3 µM (top of the series) unless noted
# How it was run: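 1536-well qHTS counterscreen of the MLSMR; 200 cells/uL, 12 h pre-incubation, 23 nL cpd, 24 h at 37 deg C 5% CO2, luciferase detection reagent, 12 min RT, luminescence. Inhibition = undesired.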
# % is set by controls: 0 for no effect and ±100 for the full control effect; potency is the fitted concentration of half-maximal effect.
SMILES,"activity change, negative = inhibition",Potency
COc1ccccc1CNC(=O)C(C)n1c(=O)cc(C(F)(F)F)c2c(C)nn(C)c21 (stereo unspecified),inactive: 7.92%,–
CC1CCc2cc(F)ccc2N1C(=O)CSc1nnc2c(n1)[nH]c1ccc(F)cc12 (stereo unspecified),–,"inconclusive: 17.8 µM [inhibitor, single point]"
Cc1cccc(Cn2c(NCC(C)O)nc3c2c(=O)n(C)c(=O)n3C)c1 (stereo unspecified),inactive: 15.1%,–
CC(C)(C)C(=O)OCCNc1nc(-c2ccccc2)nc2ccccc12,–,"inconclusive: 20 µM [inhibitor, single point]"
O=C(NCc1cccnc1)C1CC(c2ccc(Cl)c(Cl)c2)=NO1 (stereo unspecified),–,"inconclusive: 7.08 µM [inhibitor, partial curve, poor fit]"
Fc1cccc2sc(Nc3nc4ccccc4s3)nc12,–,"inconclusive: 28.2 µM [inhibitor, single point]"
CC(=O)n1cc([C@H]2C=C(C(=O)Nc3ccccc3)O[C@@H](OCCCCO)C2)c2ccccc21,–,"inconclusive: 8.91 µM [inhibitor, partial curve, poor fit]"
Cc1nnc(SC(C)C(=O)Nc2ccc3c(c2)OCCO3)s1 (stereo unspecified),–,"inconclusive: 15.8 µM [inhibitor, single point]"
Oc1cccc(NC(=S)N=Nc2c(O)[nH]c3ccccc23)c1,–,"inconclusive: 28.2 µM [inhibitor, single point]"
CCCOc1ccc(F)cc1-c1cc(C(=O)Nc2ccc(C(C)C)cc2)[nH]n1,–,"inconclusive: 28.2 µM [inhibitor, single point]"
COc1ccc(Br)cc1CNC(=O)C1CCCN(S(=O)(=O)N2CCC(C)CC2)C1 (stereo unspecified),–,"inconclusive: 5.01 µM [inhibitor, partial curve, poor fit]"
CCOc1ccc(-c2nonc2NC(=O)c2oc3cc(Br)ccc3c2C)cc1,–,"inconclusive: 1 µM [inhibitor, full curve, poor fit]"
CCn1cc(C(=O)NCCN(C)C)c(=O)c2cc(F)c(N3CCN(C)CC3)cc21,inconclusive: -53.4% [inhibitor],–
CN(C1=NC(=O)C(CC(=O)O)S1)c1ccc(O)cc1 (stereo unspecified),inactive: 17.6%,–
CN(C(=O)c1cc2c(s1)-c1ccccc1S(=O)(=O)C2)c1ccccc1F,–,"inconclusive: 10 µM [inhibitor, single point]"
COc1ccc2[nH]c(C)c(CCNC(=S)Nc3ccccc3OC)c2c1,–,"inconclusive: 28.2 µM [inhibitor, single point]"
O=C(NCC1CCCCC1)C1(CC2CC(c3ccc(Cl)cc3)=NO2)CCNCC1 (stereo unspecified),–,"inconclusive: 28.2 µM [inhibitor, single point]"
CCCCOc1ccccc1NC(=O)Cn1c(-c2nonc2N)nc2ccccc21,–,"inconclusive: 2.51 µM [inhibitor, partial curve]"
CCOC(=O)C1=CC[C@@H](c2cccc(Br)c2)N(S(=O)(=O)c2ccc(F)cc2)[C@H]1c1cccc(Cl)c1,inactive: 12.6%,–
COc1ccc([C@@H]2C[C@H](c3ccccc3)Oc3cc(C)cc(C)c32)cc1,–,"inconclusive: 3.98 µM [inhibitor, full curve, poor fit]"
Cc1ccc2[nH]c(C(F)(F)F)cc(=O)c2c1,–,"inconclusive: 14.1 µM [inhibitor, single point]"
O=C(NCc1ccco1)c1cc(-c2ccc(F)cc2)on1,inactive: 2.49%,–

SMILES,"activity change, negative = inhibition",Potency
O=[N+]([O-])c1ccc(C[n+]2cccc3ccc4cccnc4c32)cc1,–,"inconclusive: 22.4 µM [inhibitor, single point]"
CCOc1ccc(C(=O)Nc2ccc3nc(SCC(=O)N4CCOCC4)sc3c2)cc1,inactive: 0.732%,–
Cc1ccc(OCC(=O)Nc2ccc(-c3nc4ccc(C)cc4o3)cc2)cc1,inactive: -3.21%,–
COc1ccc(S(=O)(=O)N2c3cc(C)ccc3OCC2C(C)(C)C)cc1 (stereo unspecified),inactive: -22%,–
CCOC1(OCC)C(c2ccc(Cl)cc2)C(C#N)(C#N)C1(OCC)OCC (stereo unspecified),–,"inconclusive: 10 µM [inhibitor, single point]"
CC(C)CC(=O)NC(=S)N(Cc1ccccc1)Cc1ccccc1,inactive: 1.64%,–
O=C(/C=C/c1ccc(Br)cc1)NC(=S)N1CCOCC1,–,"inconclusive: 28.2 µM [inhibitor, single point]"
O=C(COC(=O)c1cccc(NS(=O)(=O)c2ccc(F)c(F)c2)c1)NC(=O)NC1CCCCC1,–,"inconclusive: 31.6 µM [inhibitor, single point]"
COc1ccc(/C=C2\CCCc3c2nc2ccc(C)cc2c3C(=O)O)cc1O,–,"inconclusive: 12.6 µM [inhibitor, single point]"
Cc1noc(C)c1S(=O)(=O)Nc1ccc2c(c1)C(=O)N([C@H](C)CO)C[C@@H](C)[C@@H](CN(C)Cc1ccc3c(c1)OCO3)O2,inactive: -4.87%,–
N#C/C(=N\Nc1cccc([N+](=O)[O-])c1)C(=O)c1ccc(Br)cc1,–,"inconclusive: 7.08 µM [inhibitor, partial curve]"
CC(=O)NC/C(C)=N\Nc1ccc([N+](=O)[O-])cc1,–,"inconclusive: 5.62 µM [inhibitor, partial curve]"
CCN1CC(CN(C)Cc2nc(-c3ccc(OC)c4ccccc34)oc2C)CC1=O (stereo unspecified),–,"inconclusive: 28.2 µM [inhibitor, single point]"
CCC(C)(C)c1ccc(OCCCC[n+]2cccc(C)c2C)c(C(C)(C)CC)c1,–,"inconclusive: 10 µM [inhibitor, partial curve, poor fit]"
CN(C)c1ccc(CNC(=O)C(Cc2ccccc2)NS(=O)(=O)c2ccc3c(c2)oc(=O)n3C)cc1 (stereo unspecified),inactive: -5.2%,–
Cc1ccc(S(=O)(=O)N2CCCC2CNC(=O)C(=O)Nc2ccc(F)cc2)cc1 (stereo unspecified),–,"inconclusive: 7.94 µM [inhibitor, partial curve, poor fit]"
Cc1c(Cl)cccc1N=C1SCCN1C(=O)CN1C(=O)NC2(CCCC2)C1=O,–,"inconclusive: 12.6 µM [inhibitor, single point]"
O=C(N/N=C/c1c[nH]c2ccc(Br)cc12)c1ccncc1,inactive: 17.2%,–
Cn1c(=O)c([N+](=O)[O-])c(-n2ccnc2)c2ccccc21,–,"inconclusive: 28.2 µM [inhibitor, single point]"
CCn1c(-c2csc3c2CCC(C)C3)n[nH]c1=S (stereo unspecified),–,"inconclusive: 11.2 µM [inhibitor, partial curve, poor fit]"
Cc1ccc(Cl)cc1NC(=O)/C(C#N)=C\c1cn(Cc2ccc(F)cc2)c2ccccc12,inactive: 14.9%,–
CC1=C/C(=N\N=C2\NC(=O)C(CC(=O)Nc3ccccc3)S2)CC(C)(C)C1 (stereo unspecified),–,"inconclusive: 11.2 µM [inhibitor, single point]"

SMILES,"activity change, negative = inhibition",Potency
Cc1ccc2c(CNC3CCC(C)CC3)c(C(=O)O)n(Cc3cccc(F)c3)c2c1 (stereo unspecified),inactive: -11%,–
COc1ccc(N2CCN(C(=O)CCCN3C(=O)c4cccc5cccc(c45)C3=O)CC2)cc1,–,"inconclusive: 3.98 µM [inhibitor, full curve]"
COC(=O)c1cc2sccc2n1CC(=O)N1CCCc2ccccc21,–,"inconclusive: 12.6 µM [inhibitor, single point]"
Cc1cc(O)c(-c2cc(O)c(C)cc2O)cc1O,–,"inconclusive: 11.2 µM [inhibitor, single point]"
COc1cc(/C=C/C=C2/CC/C(=C/C=C/c3ccc(O)c(OC)c3)C2=O)ccc1O,–,"inconclusive: 12.6 µM [inhibitor, partial curve, poor fit]"
CN(c1ccccc1)c1ccc(/C=N/N2CCOCC2)cc1,–,"inconclusive: 28.2 µM [inhibitor, single point]"
CCc1c(C)nc(SCC(=O)NNC(=O)Cc2ccc(OC)cc2)[nH]c1=O,–,"inconclusive: 12.6 µM [inhibitor, single point]"
COc1cccc(CNc2nc3ccccc3n2CCN2CCCCC2)c1OC,–,"inconclusive: 11.2 µM [inhibitor, single point]"
COc1ccc(NC(=O)Nc2nc(C(N)Cc3ccc(C(F)(F)F)cc3)cs2)cc1 (stereo unspecified),–,"inconclusive: 28.2 µM [inhibitor, single point]"
CCOC(=O)C(=Cc1c[nH]c2ccc(S(=O)(=O)N(C)C)cc12)C(=O)OCC,–,"inconclusive: 28.2 µM [inhibitor, single point]"
COC(=O)c1ccc(C(=O)OC)c(NC(=O)c2c(-c3ccccc3)c(-c3ccccc3)nn(C)c2=O)c1,inactive: -7.1%,–
Cc1cccc(C(=O)OCC(=O)NC2CCCCCCC2)c1,inactive: -4.21%,–
CN(C)c1nnnn1Cc1ccccc1,–,"inconclusive: 14.1 µM [inhibitor, single point]"
Cc1ccc(NC(=S)NCCC2=CCCCC2)cc1,–,"inconclusive: 28.2 µM [inhibitor, single point]"
CC(C)CC(/C(O)=C(\C#N)c1nc2ccccc2[nH]1)N1C(=O)c2ccccc2C1=O (stereo unspecified),inactive: 11.2%,–
CC(C)c1nnc(NC(=O)c2nc(S(=O)(=O)Cc3ccccc3)ncc2Cl)s1,–,"inconclusive: 28.2 µM [inhibitor, single point]"
CCOC(=O)N1CCc2c(sc(NCc3sccc3C)c2C(=O)Nc2ccccc2OCC)C1,inactive: -0.354%,–
O=C(CNC(=O)c1ccccc1F)NCC(c1cccs1)N1CCOCC1 (stereo unspecified),–,"inconclusive: 2.51 µM [inhibitor, full curve, poor fit]"
O=C(NC(=S)Nc1ccc(N2CCCCC2)c(Cl)c1)c1ccc2c(c1)OCCO2,–,"inconclusive: 15.8 µM [inhibitor, single point]"
CCn1c(O)c(C=NC2CCCC2)sc1=S,–,"inconclusive: 10 µM [inhibitor, single point]"
Cc1cccc(Nc2nc(-c3c(C)nc4ccccn34)cs2)c1,–,"inconclusive: 7.94 µM [inhibitor, partial curve]"
CC(C)Cc1ccc(C(C)CC2=CCC(CN(C)C)C2=O)cc1 (stereo unspecified),–,"inconclusive: 12.6 µM [inhibitor, single point]"
